In all, about 310,000 compounds went through this assay and about 2,200 (0.71%) showed an effect of 50% or more. Effects have a minus sign here. The list shows a part of the results.

Sequence of human ether-à-go-go-related gene (hERG) potassium channel (Q12809 whole entry, looked up): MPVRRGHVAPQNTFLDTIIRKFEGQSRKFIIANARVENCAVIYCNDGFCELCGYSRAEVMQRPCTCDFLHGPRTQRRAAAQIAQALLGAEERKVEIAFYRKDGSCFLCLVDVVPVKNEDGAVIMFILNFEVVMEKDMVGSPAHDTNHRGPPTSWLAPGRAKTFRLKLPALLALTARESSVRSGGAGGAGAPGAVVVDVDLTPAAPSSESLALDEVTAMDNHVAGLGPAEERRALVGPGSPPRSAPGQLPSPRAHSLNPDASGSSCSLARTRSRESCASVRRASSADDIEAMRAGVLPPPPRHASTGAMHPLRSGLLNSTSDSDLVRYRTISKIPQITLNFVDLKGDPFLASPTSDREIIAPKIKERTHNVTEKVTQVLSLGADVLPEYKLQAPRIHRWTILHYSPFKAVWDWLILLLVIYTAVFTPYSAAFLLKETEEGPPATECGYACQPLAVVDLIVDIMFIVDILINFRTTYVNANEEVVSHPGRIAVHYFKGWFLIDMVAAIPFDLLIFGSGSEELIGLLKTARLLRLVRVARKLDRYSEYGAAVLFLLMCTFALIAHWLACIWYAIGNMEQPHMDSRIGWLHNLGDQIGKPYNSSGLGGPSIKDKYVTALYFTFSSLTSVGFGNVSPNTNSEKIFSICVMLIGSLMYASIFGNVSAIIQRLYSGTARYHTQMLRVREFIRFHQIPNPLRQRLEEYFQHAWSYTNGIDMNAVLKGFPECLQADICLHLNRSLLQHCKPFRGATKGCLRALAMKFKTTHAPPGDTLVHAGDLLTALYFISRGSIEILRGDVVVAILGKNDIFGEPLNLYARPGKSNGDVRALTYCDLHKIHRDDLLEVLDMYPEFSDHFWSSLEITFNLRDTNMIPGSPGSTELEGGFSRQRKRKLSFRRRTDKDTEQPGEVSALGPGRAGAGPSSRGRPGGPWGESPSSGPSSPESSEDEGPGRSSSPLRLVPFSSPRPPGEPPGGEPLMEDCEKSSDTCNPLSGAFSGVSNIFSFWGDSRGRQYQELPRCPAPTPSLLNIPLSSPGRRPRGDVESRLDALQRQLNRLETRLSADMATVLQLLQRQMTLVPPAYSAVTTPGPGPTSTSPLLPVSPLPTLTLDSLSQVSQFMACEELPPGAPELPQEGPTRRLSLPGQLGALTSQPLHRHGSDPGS

In this experiment the target is human ether-à-go-go-related gene (hERG) potassium channel (human, UniProt Q12809). As to the kind of experiment: primary screen, population patch clamp on CHO cells stably expressing hERG. The method, then:
Briefly, Chinese hamster ovary (CHO) cells stably expressing the hERG channel were dislodged from tissue culture flasks and dispensed into PPC plates. […] During the recording, background leak currents were estimated by a 100 ms step to -80 mV from an initial holding potential of -70 mV and subtracted from the subsequent current measurement. The campaign was conducted in two phases using slight differences in recording protocol. In the first phase, the initial voltage pulse used a 100 ms step to -30 mV from a holding potential of -70 mV, a 2 s conditioning step to +25 mV, and a 2 s test step to -30 mV. During the second phase of the screen, the potential during the conditioning step was raised to +45 mV. In both phases of the campaign, a secondary voltage pulse was applied using the same parameters as the second phase initial pulse. The initial and secondary pulses were applied in the absence of compound, and upon application of 1 μM and 10 μM test concentrations. Small molecule effects on hERG current density were quantified by […].
In the case of `O=C(NCc1ccc(Cl)cc1)C1=Cc2cc(Cl)ccc2OC1`, the “hERG current change (%, negative = inhibition) at 1uM” value came to 0.129%. The value for `CC(C)C[C@@]12C(=O)N(c3cccc(F)c3)C(=O)N1[C@H](c1ccc(Cl)cc1)[C@@H]1C(=O)N(C3CCCCC3)C(=O)[C@@H]12` was 13.5%; that for `O=C(CSc1nnnn1-c1cccc(F)c1)Nc1nc2ccccc2s1` was 7.84%; that for `COCCCNCCCCOc1c(Cl)cc(C)cc1Br.O=C(O)C(=O)O` was -20.1%. Consider `CCOc1ccc(-n2c(=O)c3sccc3n(CC(=O)NCc3ccco3)c2=O)cc1`, for which the “hERG current change (%, negative = inhibition) at 1uM” value was 2.66%. Turning to `Cc1cccc(N2CN(Cc3ccco3)CNC2=S)c1`, the “hERG current change (%, negative = inhibition) at 1uM” value was 11.2%.

`COc1ccc(C(=O)N/N=C(/C)c2ccc(N3CCCCC3)cc2)cc1`: the “hERG current change (%, negative = inhibition) at 1uM” value is 8.27%. In the case of `CCc1c(C)c2cc(Cl)c(O)c(CN(CC)CC)c2oc1=O`, the “hERG current change (%, negative = inhibition) at 1uM” value turned out to be 9.4%. Regarding `O=C(COCc1cc(-c2ccc3c(c2)OCO3)on1)N1CCN(c2ccccc2)CC1`, the “hERG current change (%, negative = inhibition) at 1uM” value is -0.412%. For the molecule `CC(/C=C/c1ccco1)=N\NC(=O)c1cc(C)[nH]n1`, the “hERG current change (%, negative = inhibition) at 1uM” value was determined as 9.76%. The figure for `CCOC(=O)c1cnn(-c2ccccc2)c1NC(=O)CSc1nnc(-c2cccs2)n1CC` is -44.3%; for `O=C(Nc1cc(F)ccc1F)c1ccc(-n2cncn2)c([N+](=O)[O-])c1` it is 9.36%; for `COCCN(C(=O)COC(=O)COc1ccc2c(c1)CCC2)c1c(N)n(Cc2ccccc2)c(=O)[nH]c1=O` it is 5.96%. Consider `CN1c2ccccc2C(O)=C(C(=O)Nc2ccccc2)S1(=O)=O`, for which the “hERG current change (%, negative = inhibition) at 1uM” value is reported as 3.21%. As to `COC(=O)c1ccc(COc2ccc(C3C4=C(CCCC4=O)Nc4onc(C)c43)cc2)cc1` (centres unmarked), the “hERG current change (%, negative = inhibition) at 1uM” value is -2.18%. For the molecule `O=c1cc(Cn2ccnc2)c2cc(O)ccc2o1`, the “hERG current change (%, negative = inhibition) at 1uM” value is on record as 15.2%. On to `Cc1ccc(S(=O)(=O)N2CCC(C(=O)OCC(=O)N3CCC(C)CC3)CC2)cc1C`, for which the “hERG current change (%, negative = inhibition) at 1uM” value came to 9.02%. With `COc1ccc2c3c([nH]c2c1)C1CC2C(CC(O)C(OC)C2C(=O)O)CN1CC3` (centres unmarked), the “hERG current change (%, negative = inhibition) at 1uM” value came out at 17.7%. For the molecule `O=C(Nc1nc(-c2ccc3c(c2)OCCO3)cs1)c1ccco1`, the “hERG current change (%, negative = inhibition) at 1uM” value was found to be 6.84%.

In the case of `CCO[C@H]1OC(C(=O)O)=C[C@@H](c2cn(C(C)=O)c3ccccc23)[C@@H]1CCCO`, the “hERG current change (%, negative = inhibition) at 1uM” value turned out to be 19%. As for `Cc1ccc(C(=O)NC(NC(=O)c2ccc(C)cc2)c2cccc([N+](=O)[O-])c2)cc1.O`, the “hERG current change (%, negative = inhibition) at 1uM” value was found to be 7.7%.

As for `CCn1c(SCC(=O)NNC(=S)Nc2ccccc2)nnc1-c1ccc(Cl)cc1`, the “hERG current change (%, negative = inhibition) at 1uM” value is on record as 13.9%.

`COc1ccc(NS(=O)(=O)c2csc(C(N)=O)c2)cc1OC`: the “hERG current change (%, negative = inhibition) at 1uM” value worked out at 14.9%. The figure for `COc1cc(C(=O)Nc2c(C)cc(C)cc2C)c(Br)c(OC)c1OC` is -2.78%; for `Cc1ccc(OCCCC(=O)N2CCOCC2)cc1` it is 10.3%; for `CCc1nnc(NC(=O)c2ccc(S(=O)(=O)N3CCOCC3)cc2)s1` it is 0.698%. `O=C(NNC1=Nc2ccccc2SC1)c1cccc([N+](=O)[O-])c1`: the “hERG current change (%, negative = inhibition) at 1uM” value is given as 4.14%. With `CC(C)c1ccc(CNc2ccc(N3CCOCC3)cc2)cc1`, the “hERG current change (%, negative = inhibition) at 1uM” value was determined as 14.5%. `Cc1cccc(-c2ocnc2C(=O)Nc2ccccc2NC(=O)c2ccccn2)c1`: the “hERG current change (%, negative = inhibition) at 1uM” value came to 8.05%. With `O=C(CCc1ccccc1)NC(=S)Nc1ccccc1Br`, the “hERG current change (%, negative = inhibition) at 1uM” value was 6.8%.

Take `CCC(=O)Nc1ccc2oc(-c3cccnc3)nc2c1`: the “hERG current change (%, negative = inhibition) at 1uM” value came out at 9.82%. As for `CN1C(=O)C(=Cc2cn(CC(=O)N3CCCCC3)c3ccccc23)C(=O)N(C)C1=O`, the “hERG current change (%, negative = inhibition) at 1uM” value is 1.13%. In the case of `COC(=O)C1CCCN1C(=O)c1cccs1` (centres unmarked), the “hERG current change (%, negative = inhibition) at 1uM” value is recorded as 14.3%. As for `CC(C)CN1CCC(=O)N(CCC#N)CC1`, the “hERG current change (%, negative = inhibition) at 1uM” value is on record as 3.88%. The value for `Cn1ncc2c(Nc3ccc(Cl)cc3)ncnc21` was 11.4%; that for `O=C(CN1CCN(C(=O)C2CCCO2)CC1)Nc1ccc(Cl)c(Cl)c1` (centres unmarked) was -6.1%; that for `Cc1ccc(OCCCn2ccnc2)c(Br)c1` was 8.92%. Turning to `CCOC(=O)C1(CCc2ccccc2)CCN(Cc2ccccn2)CC1`, the “hERG current change (%, negative = inhibition) at 1uM” value was -57.1%.

For the molecule `O=C(NCCCn1ccnc1)NC(C(F)(F)F)C(F)(F)F`, the “hERG current change (%, negative = inhibition) at 1uM” value is -5.26%. The figure for `Cc1ccc(NC(=O)CN2C(=O)NC(C)(c3ccc(Cl)cc3)C2=O)cc1` (centres unmarked) is 14.4%; for `CC(=O)Nc1c2c3c(cccc3n(C)c1=O)C(=O)c1ccccc1-2` it is 4.67%. In the case of `OCCCCC#Cc1c(-c2ccsc2)sc2ccccc12`, the “hERG current change (%, negative = inhibition) at 1uM” value was 9.16%.

Consider `CC(OC(=O)c1ccc(O)cc1)C(=O)Nc1nc(-c2ccccc2)cs1` (centres unmarked), for which the “hERG current change (%, negative = inhibition) at 1uM” value is given as 4.82%. Turning to `O=C(COc1ccc(Cl)cc1)N1CCN(Cc2ccc([N+](=O)[O-])cc2)CC1.O=C(O)C(=O)O`, the “hERG current change (%, negative = inhibition) at 1uM” value was -76.4%. On to `Cc1ccc(NC(=O)CN2CCc3cc4c(cc3C2C)OCCCO4)cc1` (centres unmarked), for which the “hERG current change (%, negative = inhibition) at 1uM” value was 6.01%. `Cc1noc(C)c1CCC(=O)Nc1c(C(C)C)cccc1C(C)C`: the “hERG current change (%, negative = inhibition) at 1uM” value is -4.83%. On to `CC(C(=O)N=Nc1c(O)n(C)c2ccc(Br)cc12)n1cnc2ccccc2c1=O` (centres unmarked), for which the “hERG current change (%, negative = inhibition) at 1uM” value was found to be 10.7%. For `O=C(Cc1ccc(S(=O)(=O)N2CCOCC2)s1)N1CCN(S(=O)(=O)c2cccc(Cl)c2)CC1`, the “hERG current change (%, negative = inhibition) at 1uM” value is 14.8%.

As for `Cc1ncc[nH]1`, the “hERG current change (%, negative = inhibition) at 1uM” value is on record as 13.2%.

For the molecule `Oc1cccc(NC(=S)N=Nc2c(O)[nH]c3ccccc23)c1`, the “hERG current change (%, negative = inhibition) at 1uM” value is given as 6.83%. For the molecule `CCS(=O)CCSc1nc2ccccc2s1` (centres unmarked), the “hERG current change (%, negative = inhibition) at 1uM” value is recorded as 6.93%. As for `COc1cc(OC)cc(C(=O)NCCOC23CC4CC(CC(C4)C2)C3)c1`, the “hERG current change (%, negative = inhibition) at 1uM” value is recorded as 3.66%. As for `CC1CC(Nc2ccccc2)c2ccccc2N1C(=O)c1ccco1` (centres unmarked), the “hERG current change (%, negative = inhibition) at 1uM” value is on record as 12.1%. On to `COc1cc2c(cc1NC(=O)c1cc(-c3cccnc3)nc3ccc(C)cc13)oc1ccccc12`, for which the “hERG current change (%, negative = inhibition) at 1uM” value is given as 9.73%. The figure for `Cc1ccc(-c2ccc3nnc(SCC(=O)NCC4CCCO4)n3n2)cc1` (centres unmarked) is 5.54%; for `O=C(O)CCC(=O)Nc1ccc(N2CCCCCC2)cc1` it is 8.38%.

The record behind these values is article PMC4336329 (PLoS ONE, 2015).
